# About 4,000 (1.1%) of roughly 380,000 compounds were called active. Inconclusive results, whose numbers are uncertain, are shown with a selection of clear calls. Calls follow the shape of the dose curve; as a rule, active = well fitted activation curve with a large enough effect; inconclusive = small, poorly fitted or top-dose-only effect; inactive = no such curve, though single readings can be large or run the other way. A potency beside an inconclusive call is a rough fit, not a confirmed value.
# Assay: qHTS Assay to Identify Small Molecule Activators of BRCA1 Expression; also: nearly all actives have a fitted effect of over 80% in size
# Conditions: MCF7-BRCA1-FFLuc reporter, luminescence, 48 h; activation: at 46.1 µM (top of the series), scaled: vehicle 0%, 10 µM genistein 100% unless noted
# Method in brief: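 MCF7 cells carrying a BRCA1-firefly luciferase reporter (2000 cells/well, phenol-red free MEM) were attached for 2 h at 37 °C, then given compounds for 48 h. Luminescence was read 15 min after luciferase reagent; activity normalized to genistein (10 microM) and DMSO.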
# Potency is read from the fitted curve at half-maximal effect; tags tell the direction and shape of the fitted curve.
SMILES,Potency,activation
O=C(OCCCc1cc2ccccc2c(=O)o1)c1ccc(F)cc1,"inconclusive: 3.98 µM [activator, partial curve, poor fit]",
CC(C)OC(=O)c1c(N)sc2c1CCCC2,,inactive: 4.76%
O=C(CSc1cn(Cc2ccccc2)c2ccccc12)N1CCOCC1,active: 7.94 µM,
Cc1ccc(Cc2nc3ccccc3nc2SCC(=O)NCCC(C)C)cc1,,inactive: 2.43%
CCOC(=O)/C(C#N)=C\c1cn(C)c2ccccc12,,inactive: -47%
CON(C)C(=O)/C=C/c1ccc([B-](F)(F)F)cc1,active: 14.1 µM,
O=C(Nc1cccc(S(=O)(=O)NC2=NCCCCC2)c1)C1COc2ccccc2O1 (stereo unspecified),"inconclusive: 35.5 µM [activator, single point]",
COc1ccccc1/C=C/C=C(\C#N)C(=O)NC(C)c1ccccc1 (stereo unspecified),,inactive: -37.4%
Clc1ccc(-c2nnc(-c3ccccc3)o2)c(Cl)c1,"inconclusive: 0.631 µM [activator, full curve, poor fit]",
NC(=O)c1ccccc1OCC(=O)Nc1ccc2c(c1)CCC2,"inconclusive: 11.2 µM [activator, partial curve, poor fit]",
COc1ccc(C(=O)Nc2ccc(O)c3ccccc23)cc1,,inactive: -15%
Cc1ccc(C(=O)Cn2cnc3ccccc3c2=O)cc1,"inconclusive: 3.16 µM [activator, partial curve, poor fit]",
CN(Cc1cccc(-n2cccn2)c1)C(=O)CCc1nnc(C2CCCCC2)o1,"inconclusive: 17.8 µM [activator, single point]",
C=CCNc1nc(-c2ccc([N+](=O)[O-])cc2)cs1,"inconclusive: 3.16 µM [activator, full curve, poor fit]",
COC(=O)c1cc(CSc2nc3ccccc3[nH]2)oc1C,"inconclusive: 3.16 µM [activator, partial curve, poor fit]",
Cn1c(SCc2ccccc2)nnc1-c1cnccn1,"inconclusive: 12.6 µM [activator, single point]",
O=C(CSc1nnc(-c2ccc(F)cc2)o1)N1CCCC1,"inconclusive: 8.91 µM [activator, partial curve, poor fit]",
O=C(Nc1ccccc1C(=O)O)/C(=C/c1ccc(Cl)cc1Cl)NC(=O)c1ccco1,,inactive: 1.84%
CCN1C(=O)C(=O)N(CC(=O)c2cc(C)n(C3CC3)c2C)C1=O,"inconclusive: 14.1 µM [activator, partial curve, poor fit]",
Cc1c(/C=N/NC(N)=O)c2ccccn2c1C(=O)c1ccc(F)cc1,,inactive: -33.8%
NC(=O)Cn1nnc(-c2ccc(NC(=O)c3ccc(F)cc3)cc2)n1,"inconclusive: 14.1 µM [activator, partial curve, poor fit]",
COCCCNC(=O)c1ccc2nc(Cc3ccc(OC)cc3)oc2c1,"inconclusive: 11.2 µM [activator, partial curve, poor fit]",
c1ccc(Nc2nc(-c3ccccn3)cs2)cc1,"inconclusive: 2 µM [activator, partial curve, poor fit]",
CC(C)(C)OC(=O)N/N=C\c1ccc(OC(=O)c2ccco2)cc1,active: 7.94 µM,
O=C(Cn1cc2c(n1)CCCCC2)NC1CCCCCC1,active: 8.91 µM,
OCCN=c1cc(-c2ccccc2)oc2ccc(Cl)cc12,,inactive: 55.9%

SMILES,Potency,activation
COc1ccc(NCc2nc3ccccc3n2C)cc1,active: 3.98 µM,
CCOC(=O)C1CCN(C(=O)c2ccc3c(Cl)c4c(nc3c2)CCCC4)CC1,"inconclusive: 1.58 µM [activator, partial curve, poor fit]",
Cc1nc(C(=O)NNC(=O)c2ccccc2)c(C(F)(F)F)o1,,inactive: -13.1%
N/C(=N\OC(=O)c1cccc(Cl)c1)c1ccncc1,"inconclusive: 15.8 µM [activator, single point]",
Cc1ccc(C(=O)Cn2cnc3ccccc3c2=O)cc1C,active: 4.47 µM,
CN(C(=O)c1ccc2c(c1)OCO2)C1CCCCC1,"inconclusive: 11.2 µM [activator, partial curve, poor fit]",
CCCCCNc1nc2sc3c(c2c(=O)n1-c1cccc(Cl)c1)CCN(C)C3,,inactive: -52.6%
O=[N+]([O-])c1ccc(/C=C/c2ccc3cccnc3c2)cc1,"inconclusive: 3.16 µM [activator, partial curve, poor fit]",
CC1CCN(C(=O)Nc2ccc3nsnc3c2)CC1,"inconclusive: 7.94 µM [activator, partial curve, poor fit]",
CCn1cnc2c(cnn2-c2ccccc2)c1=O,"inconclusive: 12.6 µM [activator, partial curve, poor fit]",
CCCOc1cccc(C(=O)Nc2ccc3c(c2)OCCO3)c1,active: 7.94 µM,
Cc1cccc(Nc2nc(N)nc(CSc3nccn3C)n2)c1,"inconclusive: 2.24 µM [activator, partial curve, poor fit]",
NC(=O)COc1ccc(C23CC4CC(CC(C4)C2)C3)cc1,"inconclusive: 17.8 µM [activator, partial curve, poor fit]",
O=C(O)c1cc(N/N=C/C=C/c2ccccc2)ccc1Cl,,inconclusive: 132% [activator]
COc1ccc(OC)c(Nc2ccc(Nc3cc(OC)ccc3OC)nn2)c1,,inactive: -17%
COc1ccc(/C=C/c2nc3ccccc3n2C)cc1,,inconclusive: -84.7% [activator]
COc1ccc2cc(C3=CC(=O)CCC3)ccc2c1,"inconclusive: 2.82 µM [activator, full curve, poor fit]",
CCOC(=O)c1sc2nc3c(cc2c1N)COC(C(C)C)C3 (stereo unspecified),"inconclusive: 0.562 µM [activator, full curve, poor fit]",
S=C(NCc1ccccn1)Nc1ccc(Cl)cc1Cl,"inconclusive: 12.6 µM [activator, partial curve, poor fit]",
Cc1ccc(C(=O)ONc2ccc(N=O)cc2)cc1,,inactive: 34.8%
COc1cccc(N=Nc2c(N)[nH][nH]c2=O)c1,"inconclusive: 6.31 µM [activator, partial curve, poor fit]",
C/C(=N\NC(=O)c1c([N+](=O)[O-])c(C)nn1C)c1ccc(NC(=O)c2ccc(C)o2)cc1,"inconclusive: 10 µM [activator, partial curve, poor fit]",
O=C(COc1ccccc1)Nc1nc2cc3c(cc2s1)OCCO3,"inconclusive: 22.4 µM [activator, single point]",
Cc1ccc(Nc2cc(C)nc3nc(Cc4ccc(Cl)cc4)nn23)cc1,,inactive: -41.4%
O=C(Nc1cccc([N+](=O)[O-])c1)C(=O)N1CCCCC1,active: 4.47 µM,
N/C(=N\OC(=O)c1cccc(C(F)(F)F)c1)c1cnccn1,"inconclusive: 11.2 µM [activator, partial curve, poor fit]",

SMILES,Potency,activation
O=C(O)c1ccc(-c2nc(-c3ccc(Cl)c(Cl)c3)cs2)cc1,"inconclusive: 14.1 µM [activator, partial curve, poor fit]",
CCOc1ccc2c(c1)sc(=NC(=O)C1CC1)n2C,active: 2.82 µM,
Oc1ccc(-c2csc(-c3cccnc3)n2)c(O)c1,"inconclusive: 2.82 µM [activator, full curve, poor fit]",
CC1CCN(c2ccc(NC(=O)c3cccnc3Cl)cc2)CC1,"inconclusive: 11.2 µM [activator, partial curve, poor fit]",
FC(F)(F)c1cc(-c2cccs2)nc(N2CCOCC2)n1,,inactive: -2.05%
CC(C)Cc1nc(N2CCC(C(N)=O)CC2)c2nnn(Cc3ccccc3)c2n1,,inactive: 0.574%
O=C(N/N=C\c1cn(-c2ccccc2)nc1-c1ccccc1)c1ccc2c(c1)OCO2,,inactive: 25%
CC(C)c1nc2cc(Cl)ccc2n(Cc2ccccc2)c1=O,,inactive: -13.3%
O=S(=O)(Cc1noc(-c2ccc(Cl)cc2)n1)Cc1ccco1,active: 7.94 µM,
O=C(CSc1nccn1-c1ccccc1)c1ccc(Cl)cc1,"inconclusive: 11.2 µM [activator, partial curve, poor fit]",
COc1ccc(NC(=O)CSc2nnc(-c3ccc(F)cc3)o2)cn1,"inconclusive: 25.1 µM [activator, single point]",
C/C(=N\NC(=O)C(N)=O)c1ccc(NC(=O)c2cccs2)cc1,"inconclusive: 10 µM [activator, partial curve, poor fit]",
O=C(Nc1ccccc1)N1CCc2ccccc2C1,"inconclusive: 22.4 µM [activator, single point]",
COc1cccc(CNS(=O)(=O)c2cc3c(cc2Cl)NC(=O)CO3)c1,,inactive: -14.8%
O=c1c2ccccc2nnn1CSc1nnc2ccccn12,active: 5.62 µM,
CN(C)c1ccc(/C=C/c2nc3ccccc3c(=O)[nH]2)cc1,,inconclusive: 75.8% [activator]
Clc1ccc(-c2nc3cc(CN4CCCCC4)ccc3o2)cc1,"inconclusive: 2.51 µM [activator, full curve, poor fit]",
O=C(NC(=S)N1CCOCC1)c1ccc([N+](=O)[O-])cc1,,inactive: -23.9%
CCOC(=O)NC1CCc2cc(OC)c(OC)c(OC)c2-c2ccc(SC)c(=O)cc21 (stereo unspecified),,inconclusive: -87.8% [activator]
COc1cc(Cl)c(C)cc1NC(=O)CCc1c(C)nc2cc(-c3cccc(F)c3)nn2c1C,,inactive: 0%
CCc1cccc(C)c1NC(=S)NCc1ccccc1,,inactive: -6.68%
OCCNc1nc(Nc2cc(Cl)ccc2OC2CCCC2)nc(N2CCCC2)n1,,inconclusive: -40.8% [activator]
C=CCn1c(O)c(C2=c3ccccc3=NC2=O)s/c1=N/c1nccs1,,inactive: -33.8%
COc1ccccc1N/C=C/c1onc(C)c1[N+](=O)[O-],"inconclusive: 0.631 µM [activator, full curve, poor fit]",
